Here are results for 88 compounds from article PMC4336329 (PLoS ONE, 2015).

In all, about 310,000 compounds went through this assay and about 14,000 (4.5%) showed an effect of 50% or more. The effect is printed as a negative number. Some of the results follow.
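Also: peak tail current of the secondary pulse compared with the same well before compound.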

The target in this experiment is human ether-à-go-go-related gene (hERG) potassium channel (human, UniProt Q12809). In words: primary screen, population patch clamp on CHO cells stably expressing hERG.
Chain of human ether-à-go-go-related gene (hERG) potassium channel (Q12809 whole entry, looked up): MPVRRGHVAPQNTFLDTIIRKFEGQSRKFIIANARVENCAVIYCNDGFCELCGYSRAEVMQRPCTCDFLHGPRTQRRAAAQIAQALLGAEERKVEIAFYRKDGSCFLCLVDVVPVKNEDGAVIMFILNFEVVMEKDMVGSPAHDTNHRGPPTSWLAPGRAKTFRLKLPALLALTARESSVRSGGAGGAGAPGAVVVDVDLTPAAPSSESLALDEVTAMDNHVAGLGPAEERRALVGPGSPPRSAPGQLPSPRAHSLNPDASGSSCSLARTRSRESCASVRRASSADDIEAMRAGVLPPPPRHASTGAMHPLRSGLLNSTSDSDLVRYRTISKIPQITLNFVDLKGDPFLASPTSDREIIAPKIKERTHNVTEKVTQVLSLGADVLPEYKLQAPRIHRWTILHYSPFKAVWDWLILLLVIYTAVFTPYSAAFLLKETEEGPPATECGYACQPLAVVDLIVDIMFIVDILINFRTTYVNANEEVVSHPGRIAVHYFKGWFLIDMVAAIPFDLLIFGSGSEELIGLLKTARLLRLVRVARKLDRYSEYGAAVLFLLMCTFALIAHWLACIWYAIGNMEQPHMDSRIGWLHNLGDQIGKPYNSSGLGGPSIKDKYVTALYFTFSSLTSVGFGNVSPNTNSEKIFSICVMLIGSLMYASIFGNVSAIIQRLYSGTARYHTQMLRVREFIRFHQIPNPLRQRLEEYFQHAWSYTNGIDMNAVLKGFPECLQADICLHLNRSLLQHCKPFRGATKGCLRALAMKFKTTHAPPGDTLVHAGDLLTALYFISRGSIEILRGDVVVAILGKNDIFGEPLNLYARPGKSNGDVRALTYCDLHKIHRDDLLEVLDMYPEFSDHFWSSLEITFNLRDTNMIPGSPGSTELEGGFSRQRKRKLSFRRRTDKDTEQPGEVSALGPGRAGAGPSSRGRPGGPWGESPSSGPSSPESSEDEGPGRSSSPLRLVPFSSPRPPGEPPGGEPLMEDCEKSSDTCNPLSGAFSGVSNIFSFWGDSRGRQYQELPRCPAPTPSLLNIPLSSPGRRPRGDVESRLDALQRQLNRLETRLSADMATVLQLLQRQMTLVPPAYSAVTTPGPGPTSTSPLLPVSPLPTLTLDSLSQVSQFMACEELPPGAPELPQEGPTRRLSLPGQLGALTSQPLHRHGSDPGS
As to `CNC(=O)CCCN1C(=O)c2ccccc2Sc2ncccc21`, the “hERG current change (%, negative = inhibition) at 10uM” value worked out at 23.9%.
As for `Cc1nc(C)c(-c2ccc(SCc3ccc(Cl)cc3)nn2)s1`, the figure is -14.7%; as for `C=CCn1c(SCC(=O)N2CC(=O)Nc3ccccc32)nc2scc(-c3ccccc3)c2c1=O`, -1.72%; as for `CC(C)c1ccccc1OS(N)(=O)=O`, 5.49%.
As for `COc1ccc(CC(=O)NC(C)c2nnc(SCC(=O)c3ccc(Br)cc3)n2C)cc1` (stereo not shown), the figure is -9.89%.
Next, `Cc1cccc(N(CC(=O)N2CCCCCC2)S(C)(=O)=O)c1`: 20.5%; `COc1cc2c(C#N)c(N3CCN(C)CC3)nc(N)c2c(N)n1`: -7.71%; `COc1ccc(S(=O)(=O)N2CCC(NC(=O)C(Cc3cccc(OC)c3OC)NC(C)=O)CC2)cc1` (stereo not shown): 7.12%.
Regarding `CCOC(=S)SCc1cn2ccc(C)cc2n1`, the “hERG current change (%, negative = inhibition) at 10uM” value is recorded as -44.5%.
Consider `Cc1ccc(C(=O)NCCCN2CCOCC2)cc1`, for which the “hERG current change (%, negative = inhibition) at 10uM” value worked out at 3.81%.
On to `CCOC(=O)c1c(C)[nH]c(C)c1S(=O)(=O)NCCc1sccc1C`, for which the “hERG current change (%, negative = inhibition) at 10uM” value is -0.705%.
Take `Cc1ccccc1-c1nc2c(s1)CCc1onc(-c3ccc(Cl)cc3)c1-2`: the “hERG current change (%, negative = inhibition) at 10uM” value was determined as 12.1%.
Next, `c1ccc(Cn2nnc3c(N4CCc5ccccc54)ncnc32)cc1`: 8.39%; `CC(=O)N1c2ccc(S(=O)(=O)N3CCCCC3)cc2CC1C(=O)Nc1ccc(C)cc1` (stereo not shown): -2.69%; `CCOc1ccc(-c2c(C(=O)N/N=C(\C)c3ccncc3)nnn2-c2nonc2N)cc1`: 11.8%.
As for `Cc1ccc(C2N3CC4([N+](=O)[O-])CN2CC([N+](=O)[O-])(C3)C4(C)C)cc1` (stereo not shown), the figure is 12.2%; as for `COc1ccccc1N1CCN(c2ncnc3sc(C(=O)NCC4CCCO4)c(C)c23)CC1` (stereo not shown), -5%; as for `COC(=O)c1c(NC(=O)C(=O)NCCCN2CCOCC2)sc2c1CCC2`, -4.55%.
For `COc1ccc(C(NC(=O)C(C)C)c2c(O)ccc3ccccc23)cc1OC` (stereo not shown), the “hERG current change (%, negative = inhibition) at 10uM” value was -15%.
Next, `Cc1cccc(NC(=O)c2ccc(S(=O)(=O)N3CC(C)OC(C)C3)cc2)n1` (stereo not shown): -2.03%.
With `O=C(O)c1ccccc1OCc1ccccc1Cl`, the “hERG current change (%, negative = inhibition) at 10uM” value is reported as 6.55%.
Regarding `CCN(CC)c1ncnc2scc(C3COc4ccccc4O3)c12` (stereo not shown), the “hERG current change (%, negative = inhibition) at 10uM” value is -8.77%.
Next, `Cc1cccc(N2CCN(C(=O)C3CCCCC3)CC2)c1C`: -24.8%; `CC(C)(C)NC(=O)c1ccc2nsnc2c1`: 5.74%.
As to `CC(C)(C)C(=O)/C(C#N)=C/c1ccc(O)cc1`, the “hERG current change (%, negative = inhibition) at 10uM” value worked out at 15.2%.
As for `Cc1ccc(-c2csc3ncnc(Cl)c23)cc1`, the figure is -3.12%; as for `CCCOc1ccc(N/C=C/C(=O)C(C)(C)C)cc1`, 5.6%; as for `CCn1c(=O)n(CC)c2cc(NS(=O)(=O)c3ccccc3)ccc21`, -68.7%.
Next, `Cc1nc(NCc2ccc(S(N)(=O)=O)cc2)c2c(C)c(C)sc2n1`: 2.83%.
With `CCOc1ccc(NC(=O)CN(C)S(=O)(=O)c2cccs2)cc1`, the “hERG current change (%, negative = inhibition) at 10uM” value is given as -0.397%.
Next, `COc1ccc(C2OC(=O)CC2C(=O)NCc2ccc(Cl)cc2)cc1OC` (stereo not shown): -15.4%; `O=C(NCC1CCCO1)C1CCN(C2CCN(C(=O)C3CCCCC3)CC2)CC1` (stereo not shown): 4.5%; `Fc1ccc(CN2CCCN(C(=S)Nc3ccc(F)cc3)CC2)cc1`: -15.1%.
As for `Cc1cccc(OCC(=O)Nc2cc(S(=O)(=O)N3CCOCC3)ccc2N2CCCC2)c1C`, the figure is 9.48%; as for `O=c1cc(CO)oc(C(Nc2ccccn2)c2ccsc2)c1O` (stereo not shown), 0.895%; as for `Cc1cc(C)c2c(N)c(C(=O)NNC(=O)c3ccccc3)sc2n1`, -2.06%.
Next, `Fc1ccccc1Cn1cc(C(=S)N2CCOCC2)c2ccccc21`: -1.06%.
In the case of `COc1cc2c(cc1OC)CN(C(=O)CN1C(=O)NC3(CCC(C)CC3)C1=O)CC2` (stereo not shown), the “hERG current change (%, negative = inhibition) at 10uM” value is -4.92%.
In the case of `COc1ccc(NC(=O)CSc2nc(N)cc(N)n2)cc1S(=O)(=O)N1CCCCC1`, the “hERG current change (%, negative = inhibition) at 10uM” value was found to be 17.2%.
Next, `CC(C)(C)OC(=O)N1CCC(C(=O)N2CCC[C@H]2C(=O)O)CC1`: 23.7%; `COc1cc(/C=N/n2c(-c3cc(C)[nH]n3)n[nH]c2=S)cc(OC)c1O`: 28.5%; `Brc1ccc(-c2nc3ccccc3s2)s1`: 0.64%.
As for `CCOC(=O)c1ccccc1NC(=O)Cn1cnc2c(cnn2C(C)(C)C)c1=O`, the figure is 5.04%; as for `CCOc1ccc2nc(N3CCC(C(=O)NCCCN4CCOCC4)CC3)sc2c1`, -17.7%; as for `CC(C)CCNC(=O)CO/N=C/c1ccccc1OC(F)F`, -0.658%.
Regarding `O=[N+]([O-])c1cccc(-c2c(-c3ccccc3)ncc3ccc(F)cc23)c1`, the “hERG current change (%, negative = inhibition) at 10uM” value is 1.49%.
Take `C=CCn1c(=O)c2ccc(C(=O)NCc3ccccc3)cc2n(Cc2cccc(Cl)c2)c1=O`: the “hERG current change (%, negative = inhibition) at 10uM” value was found to be 14%.
In the case of `CC1(C)CC(=O)c2sc(NS(=O)(=O)c3ccc([N+](=O)[O-])cc3)nc2C1`, the “hERG current change (%, negative = inhibition) at 10uM” value was 14.7%.
Regarding `COc1ccc(C(=O)c2c(C)oc3ccc(O)cc23)c(OC)c1`, the “hERG current change (%, negative = inhibition) at 10uM” value is 18.7%.
As to `CC(C)(C)C(=O)N1CCN(CCN2C(=O)c3cccc4cccc(c34)C2=O)CC1`, the “hERG current change (%, negative = inhibition) at 10uM” value was determined as 3.09%.
For the compound `CC(C)C(=O)Nc1ccc(C(=O)NC2CCSC2=O)cc1` (stereo not shown), the “hERG current change (%, negative = inhibition) at 10uM” value was 7.51%.
For `CC(C)c1ccc(C(C(=O)NC2CCCCC2)N(C(=O)c2csnn2)C2CC2)cc1` (stereo not shown), the “hERG current change (%, negative = inhibition) at 10uM” value is 0.0433%.
As for `O=C(Nc1cccnc1)/C(N=Nc1c(Cl)cccc1Cl)=C(\O)c1ccccc1`, the figure is 18.8%.
`COc1ccccc1-c1n[nH]c(=S)n1-c1ccccc1`: the “hERG current change (%, negative = inhibition) at 10uM” value is on record as 13.2%.
Next, `CCOc1cc(/C=N/NC(=O)N/N=C/c2ccc(O)c(OCC)c2)ccc1O`: -10.1%; `O=C(CC1C(=O)NCCN1C/C=C/c1ccccc1)NCCc1ccncc1` (stereo not shown): -18.1%; `COc1cc(S(=O)(=O)Nc2ccc3cn[nH]c3c2)ccc1Cl`: -7.9%.
Regarding `COc1ccc(CC(=O)N/N=C/c2cc([N+](=O)[O-])cc(Br)c2O)cc1`, the “hERG current change (%, negative = inhibition) at 10uM” value amounted to 6.88%.
As for `O=P(OC1CCCCC1)(OC1CCCCC1)C(O)c1c(Cl)cccc1Cl` (stereo not shown), the figure is -1.25%; as for `CC(C)c1ccc(NC(=O)COC(=O)CSc2nnc(N)s2)cc1`, 13%.
As for `COc1ccc(CCNC(=O)CN2C(=O)NC(C)(c3ccc([N+](=O)[O-])cc3)C2=O)cc1` (stereo not shown), the figure is -26.5%.
As for `NNc1nc2sc3c(c2c(=O)n1C1CCCCC1)CCN(Cc1ccccc1)C3`, the figure is -3.78%.
Take `Cc1n[nH]c(C)c1C(=O)CC1(O)C(=O)N(Cc2ccccc2)c2ccc(Br)cc21` (stereo not shown): the “hERG current change (%, negative = inhibition) at 10uM” value is -1.66%.
As for `COc1cccc(-n2cc(C(=O)NCCCOC(C)C)c3ccccc3c2=O)c1`, the figure is -6.95%.
As for `O=C(O)CSc1ccccc1C(=O)O`, the figure is 0.431%; as for `Cc1nn(-c2ccccc2)c(C)c1/C=C/C(=O)OC(C)C(N)=O` (stereo not shown), 6%.
As for `COc1ccc(CCN(C)CCC(=O)Nc2ccc(C)cc2)cc1OC.Cl`, the figure is -64.3%.
As to `COc1ccc(S(=O)(=O)N2CCCC(C(=O)NCCC(C)C)C2)cc1` (stereo not shown), the “hERG current change (%, negative = inhibition) at 10uM” value amounted to 9.87%.
As for `CC(=O)c1cccc(NC(=O)C(C)OC(=O)c2cc(=O)[nH]c3ccccc23)c1` (stereo not shown), the figure is -0.987%.
In the case of `Cc1c(-c2n[nH]c(=S)n2-c2ccc(C(F)(F)F)cc2)nnn1-c1ccccc1`, the “hERG current change (%, negative = inhibition) at 10uM” value was found to be 20%.
As for `CCCN(CC(=O)Nc1ccccc1C)C(=O)CCN1C(=O)c2cccc([N+](=O)[O-])c2C1=O`, the figure is -18.6%; as for `Cc1c(C(=O)N/N=C/c2cccs2)nnn1-c1nonc1N`, -18.8%.
`COc1cccc(Oc2ccc(N)cn2)c1`: the “hERG current change (%, negative = inhibition) at 10uM” value was found to be 2.71%.
Next, `Cc1cccnc1CCNC(=O)CCc1nnc(CCc2ccccc2)o1`: -2.46%.
Take `COC(=O)C(CC(C)C)NC(=O)CSc1nc(-c2ccccc2)c(C#N)c(=O)[nH]1` (stereo not shown): the “hERG current change (%, negative = inhibition) at 10uM” value is given as -14.4%.
Consider `Cc1cccc(N(Cc2ccccc2)C(=O)CN2C(=O)NC3(CCCCC3C)C2=O)c1` (stereo not shown), for which the “hERG current change (%, negative = inhibition) at 10uM” value is -36.8%.
As for `Cc1c(Cl)cccc1NC(=O)CN1CCN(CCN=CC2=C(O)CC(c3ccccc3)CC2=O)CC1` (stereo not shown), the figure is -19.9%; as for `CC1(C)c2cc(Cl)ccc2-n2c1cc(O)c(-c1ccccc1)c2=O`, 9.35%.
As for `CCOC(=O)CSc1c(-c2ccc(Cl)cc2)[nH]c2ccccc12`, the figure is -4.47%.
With `COc1ccc(/C=C(\NC(=O)c2ccc(OC)cc2)C(=O)Nc2ccccc2C(=O)O)cc1`, the “hERG current change (%, negative = inhibition) at 10uM” value is -17.9%.
Next, `CCC(CC)C(=O)NCCc1ccc(OC)cc1`: 17.8%.
With `COCCN(C(=O)C1CCCC1)c1c(N)n(Cc2ccccc2)c(=O)[nH]c1=O`, the “hERG current change (%, negative = inhibition) at 10uM” value came to 29.4%.
Next, `O=C(Nc1ncc([N+](=O)[O-])s1)C1CC(=O)N(c2ccc(F)cc2)C1` (stereo not shown): 5.96%.
As for `CCCCn1c(N)c(N(CCC(C)C)C(=O)c2c(C)noc2C)c(=O)[nH]c1=O`, the figure is 8.73%.
Next, `CCOC(=O)C(C)c1c(C)[nH]c(=S)[nH]c1=O` (stereo not shown): 9.04%; `COc1ccc(C)cc1-n1[nH]nnc1=S`: 16.3%.
As for `Cc1cccc(-n2nc3c(c2NC(=O)C2CC2)CS(=O)(=O)C3)c1C`, the “hERG current change (%, negative = inhibition) at 10uM” value is -15.4%.
Turning to `O=C(CCC(=O)NC1CCCCC1)N/N=C/c1ccncc1`, the “hERG current change (%, negative = inhibition) at 10uM” value worked out at 38.9%.
